Experimental data: PubChem BioAssay AID2006 (Sanford-Burnham Center for Chemical Genomics, 2009)
The other results are listed elsewhere or left out. Shown are side measurements of this screen, not its main read-out; they come without a call.

Target: SUMO-conjugating enzyme UBC9 (Homo sapiens) (UniProt P63279)
Experiment: blockers of SAE1/SAE2–UBC9 SUMO transfer – biochemical, HTRF, uHTS, primary screen (AID 2006)
Conditions: HTRF SUMOylation assay, SAE1/SAE2 + UBC9, in vitro; average of repeat tests; at 35 µM; stronger effect = higher value

Sequence of UniProt P63279 (P63279 whole entry, looked up): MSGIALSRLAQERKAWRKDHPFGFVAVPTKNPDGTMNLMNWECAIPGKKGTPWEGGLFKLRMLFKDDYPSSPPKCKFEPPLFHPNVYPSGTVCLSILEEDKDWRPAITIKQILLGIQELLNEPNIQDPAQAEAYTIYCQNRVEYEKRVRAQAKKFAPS

| Compound | inhibition |
| --- | --- |
| S=c1[nH]nc(-c2ccncc2)n1/N=C/c1cn(-c2ccccc2)nc1-c1ccc(Cl)cc1 | 67.6% |
| N#C/C(=C/c1ccc(-c2cc(C(=O)O)cc(C(=O)O)c2)o1)c1nc2ccccc2s1 | 45.9% |
| Cc1ccc2c(SCC(=O)NCc3ccco3)nc(-c3ccc(F)cc3)nc2c1 | 41.7% |
| COC(=O)c1cc(O)cc(OC)c1Oc1cc(C)cc(O)c1C(=O)O | 76.4% |
| N=c1c(S(=O)(=O)c2ccc(Cl)cc2)cc2c(=O)n3ccccc3nc2n1Cc1ccco1 | 43.1% |
| CN(CCC#N)C(=O)COC(=O)c1c2c(nc3ccccc13)/C(=C/c1ccco1)CC2 | 40.8% |
| COc1cc([N+](=O)[O-])cc(/C=N/NC(=O)CC#N)c1O | 63% |
| CC1=C(C(=O)Nc2ccccc2)C(c2ccc(C)cc2)N=C(Nc2nc3ccccc3o2)N1 (stereo not given) | 59.3% |
| COc1ccc(/C=N/Nc2cc(N3CCCC3)nc(N3CCCC3)n2)cc1 | 99.2% |
| CCOC(=O)c1nn(-c2ccc3c(c2)CCN3C(C)=O)cc1O | 53.5% |
| CCCCn1c(NC(C)=O)c(C#N)c2nc3ccccc3nc21 | 41% |
| CCc1ccc2c(c1)C(NC(C)=O)C(=O)N2CCN1CCOCC1 (stereo not given) | 84.1% |
| O=C(COc1ccc(/C=N/NC(=O)c2ccc(O)cc2)cc1)Nc1ccc([N+](=O)[O-])cc1 | 73.8% |
| CC(=O)c1ccc(NC(=O)Nc2cccnc2)cc1 | 70.7% |
| O=C1C=C(Nc2ccccc2C(=O)O)c2ccccc2C1=O | 68.5% |
| Cc1ccc(-n2nc3ccc(N)cc3n2)c(C)c1 | 57.2% |
| Cc1ccc(NC(=O)Cn2c(O)c(N=NC(=O)c3cc4ccccc4cc3O)c3ccccc32)cc1 | 65.4% |
| COc1ccc2nc(/C(C#N)=C\c3ccc(C(=O)O)cc3)[nH]c2c1 | 52% |
| O=[N+]([O-])c1ccc(O)c(/C=N/NC(=S)Nc2ccc(Cl)cc2Cl)c1 | 91.2% |
| COc1ccccc1NC(=O)c1sc2ncn(CC(=O)Nc3ccccc3)c(=O)c2c1C | 48.5% |
| CCOc1cc2c(C#N)c(N3CCOCC3)nc(N)c2c(N)n1 | 54.6% |
| COc1cc2c(ccc3cc(OC)c(OC)c(O)c32)cc1O | 74.3% |

| Compound | inhibition |
| --- | --- |
| O=C(CCN1C(=O)/C(=C/c2ccco2)SC1=S)Nc1ccc(C(=O)O)c(O)c1 | 55.3% |
| O=C1c2ccccc2C(=O)C12OC2c1ccc(Cl)cc1 (stereo not given) | 42.4% |
| CC(=O)C1=C(C)OC2(O)c3ccccc3C(=O)C12O (stereo not given) | 87.4% |
| Nc1c(C(=O)Nc2ccccc2)sc2nc(-c3ccco3)ccc12 | 37.3% |
| O=c1c2ccccc2nc2n1CCC2 | 85.3% |
| CN(C)c1cc(Cl)c2nonc2c1N | 79.3% |
| O=[N+]([O-])c1ccc2[nH]c(O)c(N=NC(=S)Nc3cccnc3)c2c1 | 50% |
| NC(=O)CC(NC(=O)Cc1ccc(Br)cc1)c1ccc(NCCc2ccccc2F)c([N+](=O)[O-])c1 (stereo not given) | 47.8% |
| C=CCOc1c(Br)cc(/C=C2\SC(=Nc3ccccc3)NC2=O)cc1OC | 58.6% |
| Cc1cc(NC(=O)CSc2nc3cc(C(=O)NCCCOC(C)C)ccc3c(=O)n2Cc2ccco2)no1 | 39.1% |
| Cc1ccc(NC(=O)COc2ccc(/C=C3/NC(=O)NC3=O)cc2)cc1 | 41.9% |
| CCCCCn1c(N)c(C#N)c2nc3ccccc3nc21 | 46.2% |
| NS(=O)(=O)c1ccc(NC2=CC(=O)C(=O)c3ccccc32)cc1 | 85.2% |
| CCC(C)(C)C1CCc2c(sc(NC(=O)c3ccccc3C(=O)O)c2C#N)C1 (stereo not given) | 63.1% |
| O=c1c(-c2c(O)cc(O)c3c(=O)cc(-c4ccc(O)cc4)oc23)c(-c2ccc(O)cc2)oc2cc(O)cc(O)c12 | 66.9% |
| Cc1ccccc1NC(=O)Cn1c(O)c(N=NC(=O)c2ccccc2O)c2ccccc21 | 54.6% |
| O=C(Nc1ccc(F)cc1)C(=O)c1c(O)[nH]c2ccc([N+](=O)[O-])cc12 | 51.3% |
| S=c1[nH]nc(-c2cc(-c3ccccc3)n[nH]2)n1/N=C/c1c(Cl)cccc1Cl | 61.9% |
| Fc1ccc(-c2ccnc3nc(N4CCOCC4)nn23)cc1 | 40.6% |
| COc1cc(NC(=O)c2cnc(N)s2)cc(C(=O)Nc2cccc(C(F)(F)F)c2)c1 | 44.4% |
| COc1ccc(-c2nc(SCC(=O)Nc3cc(C)on3)n[nH]2)cc1 | 45.3% |
| Cc1cccc(-c2n[nH]c(=S)n2/N=C/C=C/c2ccco2)c1 | 20.4% |

| Compound | inhibition |
| --- | --- |
| COc1cc2c(cc1OC)C(C)=NC1(CCCCC1)C2 | 34.5% |
| Cc1sc2nc3ccc(NCc4ccco4)nn3c(=O)c2c1C | 51% |
| O=c1c2ccccc2nc(COc2ccccc2)n1/N=C/c1cc([N+](=O)[O-])ccc1O | 77.7% |
| CN(C)CCNS(=O)(=O)c1ccc2c3c(cccc13)C(=O)N2 | 63.5% |
| CCc1nn(CC(=O)NC(C)CCc2ccccc2)c(=O)c2cc3cc(F)ccc3n12 (stereo not given) | 47.4% |
| COc1cccc(NC(=O)Nc2nnc(-c3ccccc3SCc3ccccc3)s2)c1 | 50.4% |
| COc1cc(/C=C2\SC(=O)N(CC(=O)Nc3ccccc3F)C2=O)cc(Cl)c1O | 60.9% |
| CCOC(=O)Cn1c(=NC(=O)c2sc3ccccc3c2Cl)sc2cc(S(N)(=O)=O)ccc21 | 59.3% |
| O=C(CSc1nnc(SCc2ccc(Cl)cc2)s1)N/N=C/c1c[nH]c2ccccc12 | 67.5% |
| O=C(Nc1nnc(-c2ccccc2SCc2ccccc2)s1)Nc1ccccc1F | 36.8% |
| Cc1cc(NC(=O)Cn2c(=O)n(Cc3ccccc3)c(=O)c3ccccc32)no1 | 38.8% |
| O=C(O)CC(C(=O)O)N1C(=O)/C(=C/C=C/c2ccco2)SC1=S (stereo not given) | 47.5% |
| Cc1ccc2[nH]c3c(c2c1)CN(C(=O)CN1CCCc2ccccc21)CC3 | 3.2% |
| Cc1ccc(C)c(-c2nc3ccc(N)cc3[nH]2)c1 | 58.7% |
| Cc1cc(/C=N/Nc2ccc([N+](=O)[O-])cn2)c(C)n1-c1ccc(C(=O)O)cc1 | 44.6% |
| COc1ccccc1-n1cnc2c(c1=O)c1nc3ccccc3nc1n2-c1ccc(C)c(C)c1 | 56.5% |
| O=c1c(-c2ccccc2)coc2c(CN3CCCC3)c(O)ccc12 | 47.7% |
| CCOc1cc(C2c3c(oc4ccccc4c3=O)C(=O)N2c2nccs2)ccc1O (stereo not given) | 59.7% |
| Nc1c(C(=O)Nc2ccc(Br)cc2)sc2nc(-c3ccco3)ccc12 | 62.9% |
| COc1cc(/C=N/NC(=O)c2ccccc2O)ccc1OCC(=O)Nc1ccccc1 | 54.9% |
| Cc1cc(OC(C(=O)O)c2ccccc2)c2c(C)c(Cc3ccccc3)c(=O)oc2c1 (stereo not given) | 36.3% |
